Measured values as given in PubChem BioAssay (Tox21).
Several values for one entry are separate records, joined by “and”; a condition that tells them apart may be missing. Identical values can stand only once. The inconclusive results got no clear call from the source; some entries with a clear call stand among them for comparison. For some of these results: Potencies of inconclusive entries are doubtful fits and often do not repeat. Activity calls are given as the source filed them. Unless noted, calls come from the whole dose curve; as a rule, active = well fitted curve in the direction sought with a large enough effect in the repeat runs; inconclusive = weak or mixed curves; inactive = no such curve, though single readings can be large; an effect the other way counts as inactive or inconclusive.

Legend:
[1] = qHTS assay to identify small molecule antagonists of the estrogen related receptor (ERR) signaling pathway from Tox21 library - cell viability counter screen (AID 1224834); note: potency is the fitted concentration of half-maximal effect; nearly all actives have a fitted effect of over 30% in size
Method in brief: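 ERR reporter cells were plated 6 h before compound addition, then exposed to test compounds in DMSO for 17.5 h at 37 C. Viability was read as CellTiter-Fluor fluorescence after a 30-minute incubation at 37 C.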

[2] = qHTS assay to identify small molecule agonists of the hypoxia (HIF-1) signaling pathway - cell viability counter screen (AID 1224844; calls by dose curve; note: potency is the fitted concentration of half-maximal effect; nearly all actives have a fitted effect of over 50% in size)
Method in brief: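 HRE-bla ME-180 cells in medium with 0.5% dialyzed FBS were preincubated 5 hrs at 37C, exposed to compounds for 17 hrs, then viability was read as CellTiter-Glo luminescence after 30 min at room temperature, in the reporter wells.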

[3] = qHTS assay to identify small molecule agonists of H2AX (AID 1224845; active = well fitted activation curve with a large enough effect in the signal ratio in the repeat runs, not every such curve was filed as active; inconclusive = weak or mixed curves; the % refers to the signal ratio; note: potency is the fitted concentration of half-maximal effect); conditions: CHO-K1 phospho-H2AX Ser139 HTRF, 3 h; series mostly up to 154 µM
Method in brief: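 Phospho-H2AX Ser139 measured by HTRF (ex 320 nm; em 665 and 620 nm) after 24 hr antibody incubation. Compounds, 15 concentrations, 0.76% DMSO, were applied to CHO-K1 cells for 3hr at 37C before lysis.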

[4] = qHTS RealTime-Glo MT Cell Viability Assay in HEK293 cells - 32 hour (AID 1224868); note: potency is the fitted concentration of half-maximal effect; nearly all actives have a fitted effect of over 50% in size
Method in brief: (§1)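 Reads taken at 0, 8, 16, 24, 32 and 40 h from the same wells. HEK293 cells (600/well) carried RealTime-Glo reagents from seeding, with compound added after a 5 h settle at 37 C.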

[5] = A CellTox Green Cytotoxicity Assay to monitor cytotoxicity in HEK293 cells - 40 hour (AID 1224871); note: potency is the fitted concentration of half-maximal effect; nearly all actives have a fitted effect of over 45% in size
Method in brief: (§2)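 HEK293 cells premixed with CellTox Green dye were seeded at 600 cells/well and left 5 h at 37 C/5% CO2 before pin transfer of 23 nL compound in DMSO. Fluorescence from dye bound to dead-cell DNA was read during 40 h treatment.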

[6] = qHTS RealTime-Glo MT Cell Viability Assay in HEK293 cells - 40 hour (AID 1224874); conditions: RealTime-Glo luminescence; max response: active compounds read low; note: potency is the fitted concentration of half-maximal effect; nearly all actives have a fitted effect of over 50% in size
Method in brief: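 HEK293 cells mixed with RealTime-Glo reagents (NanoLuc plus cell-permeant prosubstrate) at 600 cells/well, preincubated 5 h at 37 C/5% CO2, then given 23 nL compound in DMSO. Nonlytic luminescence from viable cells was read at 0, 8, 16, 24, 32 and 40 h.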

[7] = A CellTox Green Cytotoxicity Assay to monitor cytotoxicity in HEK293 cells - 32 hour (AID 1224881); note: potency is the fitted concentration of half-maximal effect; nearly all actives have a fitted effect of over 40% in size
Method in brief: as §2

[8] = A CellTox Green Cytotoxicity Assay to monitor cytotoxicity in HepG2 cells - 32 hour (AID 1224883); note: % is set by controls: 0 for no effect and ±100 for the full control effect; nearly all actives have a fitted effect of over 50% in size
Method in brief: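 HepG2 cells were seeded together with the CellTox Green dye at 600 cells/well, left 5 h at 37 C/5% CO2, then given compounds in DMSO. Fluorescence from dye bound to dead-cell DNA was read repeatedly over 40 h of treatment at 37 C.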

[9] = qHTS RealTime-Glo MT Cell Viability Assay in HEK293 cells - 24 hour (AID 1224886)
Method in brief: as §1

[10] = qHTS assay to identify small molecule antagonists of the estrogen receptor alpha (ER-alpha) signaling pathway using the BG1 cell line in the presence of 0.1 nM 17-beta-estradiol - cell viability counter screen (AID 1259241); note: potency is the fitted concentration of half-maximal effect; nearly all actives have a fitted effect of over 40% in size
Method in brief: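 Cytotoxicity counter-screen: live-cell protease activity measured by fluorescence (30 min reagent step) in the same wells. Cells were VM7Luc4E2 with endogenous ER-alpha and ERE-driven luciferase, treated 22 hr at 37C alongside 0.1 nM 17beta-estradiol final.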

[11] = qHTS assay to identify small molecule agonists of the sonic hedgehog signaling (Shh) pathway - cell viability counter screen (AID 1259366)
Method in brief: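 Cytotoxicity counter screen: CellTiter-Fluor reagent added after 23 h compound exposure, then 1 h at 37C and fluorescence read. Cells were 3T3 Gli1-Luc, seeded 2,000 per well and dosed 4 h post-plating.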

[12] = qHTS assay to identify small molecule antagonists of the sonic hedgehog signaling (Shh) pathway - cell viability counter screen (AID 1259367); note: potency is the fitted concentration of half-maximal effect; nearly all actives have a fitted effect of over 55% in size
Method in brief: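 Cells: 3T3 Gli1-Luc, 2,000/well, 4 hr pre-incubation. Compounds in DMSO, then conditioned medium. Incubation 24 hr, 37C, 5% CO2. CellTiter-Fluor at 23 hr, 1 hr, fluorescence.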

[13] = qHTS assay to identify small molecule antagonists of the sonic hedgehog signaling (Shh) pathway (AID 1259369; calls by dose curve; note: potency is the fitted concentration of half-maximal effect; nearly all actives have a fitted effect of over 45% in size)
Method in brief: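 NIH/3T3-derived 3T3Gli1-Luc cells with stably integrated Gli1-Luc reporter were preincubated 4hr at 37 C, then given compounds in DMSO plus Shh conditioned medium and incubated 24hr. Firefly luciferase luminescence read after 30min reagent at room temperature.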

[14] = qHTS assay to identify small molecule agonists of the progesterone receptor (PR) signaling pathway - cell viability counter screen (AID 1346799; calls by dose curve; note: potency is the fitted concentration of half-maximal effect; nearly all actives have a fitted effect of over 45% in size)
Method in brief: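 Cytotoxicity measured by CellTiter-Glo luminescence (30 min, RT) in the same wells as the PR beta-lactamase agonist read. Those HEK293T cells had 16 h compound treatment at 37 C in 2% charcoal-stripped FBS medium.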

[15] = Human pregnane X receptor (PXR) small molecule agonists, qHTS cell viability counter screen (AID 1346977)
Method in brief: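 Same-well viability read: CellTiter-Fluor added after 23 hr compound exposure, fluorescence measured 1 hr later. Cells were PXR-Luc HepG2 seeded at 2,000/well in 5% charcoal-stripped FBS medium, rested 5 hr before dosing at 37 C.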

[16] = Caspase-3/7 induction in CHO-K1 cells by small molecules, qHTS cell viability counter screen (AID 1346979); note: potency is the fitted concentration of half-maximal effect; nearly all actives have a fitted effect of over 35% in size
Method in brief: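 Cytotoxicity counter screen: CellTiter-Fluor added to compound-treated wild-type CHO-K1 cells at 16 h (37C, 5% CO2), fluorescence measured 1 h later; same wells as caspase-3/7 measurement.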

[17] = Caspase-3/7 induction in CHO-K1 cells by small molecules, qHTS assay (AID 1346980); note: % is set by controls: 0 for no effect and ±100 for the full control effect; nearly all actives have a fitted effect of over 15% in size
Method in brief: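 Luminescent Caspase-Glo 3/7 read (30min, room temperature) quantified apoptosis induction. Cells were wild-type CHO-K1, treated with compound for 17hr at 37 C and 5% CO2.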

[18] = biological target: Cytochrome P450 2C9 (Homo sapiens) (UniProt P11712); assay: Cytochrome P450 Family 2 Subfamily C Member 9 (CYP2C9) small molecule antagonists: luciferase reporter qHTS assay (AID 1671198)
UniProt P11712, sequence (P11712 whole entry, looked up): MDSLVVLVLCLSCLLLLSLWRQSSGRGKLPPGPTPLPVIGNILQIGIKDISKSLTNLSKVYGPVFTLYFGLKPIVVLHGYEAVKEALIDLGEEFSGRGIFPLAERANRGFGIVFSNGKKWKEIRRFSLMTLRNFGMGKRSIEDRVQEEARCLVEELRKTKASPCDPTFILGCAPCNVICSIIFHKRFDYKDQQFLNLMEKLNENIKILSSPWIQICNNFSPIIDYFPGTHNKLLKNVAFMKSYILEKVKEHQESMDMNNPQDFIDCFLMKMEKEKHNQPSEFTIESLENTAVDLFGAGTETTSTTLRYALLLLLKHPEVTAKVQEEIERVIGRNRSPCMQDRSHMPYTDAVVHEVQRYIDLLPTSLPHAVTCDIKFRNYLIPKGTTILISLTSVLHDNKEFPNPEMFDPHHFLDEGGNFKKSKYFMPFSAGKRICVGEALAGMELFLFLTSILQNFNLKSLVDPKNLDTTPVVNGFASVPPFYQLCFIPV
Method in brief: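 Enzyme-substrate mix preincubated with compound 10 min at room temperature; reaction started with NADPH regeneration solution, 1 h 37C. Luminescent luciferin product read after 20 min detection reagent.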

[19] = biological target: Cytochrome P450 1A2 (Homo sapiens) (UniProt P05177); assay: Cytochrome P450 Family 1 Subfamily A Member 2 (CYP1A2) small molecule antagonists: luciferase reporter qHTS assay (AID 1671199)
UniProt P05177, sequence (P05177 whole entry, looked up): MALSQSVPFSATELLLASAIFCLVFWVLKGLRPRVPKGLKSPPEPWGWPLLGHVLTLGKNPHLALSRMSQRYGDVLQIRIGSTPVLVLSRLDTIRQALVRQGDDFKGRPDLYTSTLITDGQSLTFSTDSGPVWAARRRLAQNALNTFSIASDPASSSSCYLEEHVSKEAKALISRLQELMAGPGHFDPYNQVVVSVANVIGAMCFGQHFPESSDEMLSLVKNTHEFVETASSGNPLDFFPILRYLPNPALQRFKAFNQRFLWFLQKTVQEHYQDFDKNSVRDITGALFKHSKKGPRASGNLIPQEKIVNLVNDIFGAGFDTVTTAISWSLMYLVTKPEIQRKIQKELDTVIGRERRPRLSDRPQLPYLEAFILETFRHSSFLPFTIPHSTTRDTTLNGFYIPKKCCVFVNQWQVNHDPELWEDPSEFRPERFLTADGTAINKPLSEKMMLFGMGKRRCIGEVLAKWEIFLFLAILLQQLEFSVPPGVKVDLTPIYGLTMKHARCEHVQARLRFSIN
Method in brief: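 Human CYP1A2 activity measured with a P450-Glo proluciferin substrate; compounds in DMSO preincubated 10 min at room temperature with enzyme-substrate mix, then NADPH regeneration system added for 1 h. Luciferin detection reagent, 20 min, luminescence read.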

Measured: Potency
Tags give direction and shape of the fitted curve or compound fluorescence and quenching.

C[C@](N)(Cc1ccc(O)c(O)c1)C(=O)O
inactive: [8] | [17]
inconclusive: [1] 61.1 µM [cytotoxic, partial curve, poor fit] and 69.1 µM [cytotoxic, partial curve, poor fit] | [2] 16.9 µM [cytotoxic, single point] | [3] 45 µM [cytotoxic, partial curve] [middle of 4 runs] | [4] 54.9 µM [cytotoxic, partial curve, poor fit] and 55.3 µM [cytotoxic, single point] | [5] 22 µM [activator, single point] | [6] 55.3 µM [cytotoxic, partial curve, poor fit] | [7] 22 µM [activator, single point] | [9] 55.3 µM [cytotoxic, partial curve, poor fit] | [10] 38.5 µM [cytotoxic, partial curve, poor fit] | [11] 38.6 µM [cytotoxic, partial curve] and 54.9 µM [cytotoxic, partial curve] and 60.9 µM [cytotoxic, partial curve] | [12] 48.6 µM [cytotoxic, partial curve] and 54.9 µM [cytotoxic, partial curve] and 54.3 µM [cytotoxic, partial curve] | [13] 54.5 µM [inhibitor, partial curve, poor fit] and 34.6 µM [inhibitor, partial curve, poor fit] and 60.9 µM [inhibitor, partial curve, poor fit] | [14] 27.3 µM [cytotoxic, single point] | [15] 70.8 µM [cytotoxic, partial curve, poor fit] and 69.1 µM [cytotoxic] and 54.3 µM [cytotoxic, partial curve] | [16] 76.7 µM [cytotoxic, single point] | [18] 39.9 µM [inhibitor, partial curve, poor fit] and 80.2 µM [inhibitor, partial curve, poor fit] and 35.5 µM [inhibitor, partial curve] | [19] 63.1 µM [inhibitor]
